Source: publication PMC4336329 (PLoS ONE, 2015)
Screen size: about 310,000 compounds; about 14,000 (4.5%) showed an effect of 50% or more. Effects have a minus sign here. This is one part of the list.

target: human ether-à-go-go-related gene (hERG) potassium channel (human, UniProt Q12809); assay: primary screen, population patch clamp on CHO cells stably expressing hERG
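Note: peak tail current of the secondary pulse compared with the same well before compound.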

Chain of human ether-à-go-go-related gene (hERG) potassium channel (Q12809 whole entry, looked up): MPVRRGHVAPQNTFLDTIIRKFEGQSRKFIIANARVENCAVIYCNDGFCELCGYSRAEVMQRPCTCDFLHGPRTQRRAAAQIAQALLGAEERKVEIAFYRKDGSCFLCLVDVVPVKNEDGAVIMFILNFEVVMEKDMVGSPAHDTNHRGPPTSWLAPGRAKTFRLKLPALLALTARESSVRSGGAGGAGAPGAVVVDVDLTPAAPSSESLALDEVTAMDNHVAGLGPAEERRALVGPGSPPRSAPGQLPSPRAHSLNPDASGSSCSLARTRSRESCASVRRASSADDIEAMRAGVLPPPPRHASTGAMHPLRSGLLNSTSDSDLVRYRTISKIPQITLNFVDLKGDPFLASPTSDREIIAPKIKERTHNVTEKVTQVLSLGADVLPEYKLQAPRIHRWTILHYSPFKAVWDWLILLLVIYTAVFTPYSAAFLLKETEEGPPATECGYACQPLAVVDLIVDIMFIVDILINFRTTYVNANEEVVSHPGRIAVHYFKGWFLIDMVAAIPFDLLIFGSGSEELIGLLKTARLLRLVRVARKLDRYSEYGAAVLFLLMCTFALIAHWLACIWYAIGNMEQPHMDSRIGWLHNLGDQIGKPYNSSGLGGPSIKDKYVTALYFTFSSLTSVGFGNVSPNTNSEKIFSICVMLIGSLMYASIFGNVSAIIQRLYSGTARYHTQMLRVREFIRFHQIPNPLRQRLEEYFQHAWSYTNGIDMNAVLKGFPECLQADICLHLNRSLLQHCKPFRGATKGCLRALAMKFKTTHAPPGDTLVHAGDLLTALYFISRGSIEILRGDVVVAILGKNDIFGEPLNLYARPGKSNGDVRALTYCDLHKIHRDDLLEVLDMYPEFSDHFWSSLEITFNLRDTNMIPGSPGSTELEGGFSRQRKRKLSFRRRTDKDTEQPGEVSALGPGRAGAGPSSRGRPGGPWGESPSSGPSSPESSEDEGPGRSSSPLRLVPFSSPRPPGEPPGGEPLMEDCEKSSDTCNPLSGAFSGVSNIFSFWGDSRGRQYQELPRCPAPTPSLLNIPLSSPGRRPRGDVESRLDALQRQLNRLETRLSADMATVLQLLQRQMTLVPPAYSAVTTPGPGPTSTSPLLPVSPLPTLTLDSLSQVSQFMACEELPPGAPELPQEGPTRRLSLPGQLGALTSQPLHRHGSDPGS

Structure (SMILES) | hERG current change (%, negative = inhibition) at 10uM [%]
CC(C)(C)C1=Nn2c(nnc2-c2ccccn2)SC1 | 1.15
CCOC(=O)C1CCN(S(=O)(=O)c2cccc(-c3cn4cc(Cl)ccc4n3)c2)CC1 | -58
COc1ccccc1-n1ccnc(SCC(=O)NC2CCCC2)c1=O | 6.92
C=CCCC(=O)N1CCCC(Cc2cccc(Cl)c2)(C(=O)OCC)C1 (centres unmarked) | -7
CC(C)C(C(=O)NCC1CCCO1)N(CC1CCCO1)C(=O)CNS(=O)(=O)c1ccccc1 (centres unmarked) | 22.2
CC1CCc2sc(C(=O)NCC(c3ccco3)N3CCCCC3)cc2C1 (centres unmarked) | -30.8
N#CCCn1c2ccccc2c2nc3ccccc3nc21 | 9.13
COc1ccc(NC(=O)c2nn(C)c3c2CS(=O)(=O)c2ccccc2-3)cc1 | 20.7
CSc1ncccc1C(=O)OCC(=O)N1CCN(S(=O)(=O)c2ccc(C)cc2C)CC1 | 35.8
O=C(Nc1ccccc1NC(=O)NC1CCCCC1)NC1CCCCC1 | 0.961
Cc1ccc2nc(NCCCO)nc(-c3ccccc3)c2c1 | -18.4
Cc1occc1-c1nnc(SCC(N)=O)n1Cc1ccccc1 | 3.5
Cc1ccc(S(=O)(=O)N2CCCCC2)cc1C(=O)NCC1CCCO1 (centres unmarked) | -2.05
COc1ccccc1-c1nn2c(=O)cc(C)nc2s1 | -0.259
C[N+]1(CC(O)COCC2COc3ccccc3O2)CCOCC1.[I-] (centres unmarked) | 18.3
CC(C(=O)NC1CCS(=O)(=O)C1)N1C(=O)/C(=C/c2ccc(Cl)cc2)SC1=S (centres unmarked) | -0.544
CC(=O)Nc1ccc(S(=O)(=O)N2CCSC2c2ccc(Cl)cc2)cc1 (centres unmarked) | 4.1
CC(C)OCCCn1c(SCC(=O)Nc2ccccc2C(F)(F)F)nc2nccnc2c1=O | 8.08
CC(C)CCNC(=O)c1cc([N+](=O)[O-])ccc1N1CCOCC1 | -17.1

Structure (SMILES) | hERG current change (%, negative = inhibition) at 10uM [%]
Cc1cccc(NC(=O)CSc2nnc(CCNC(=O)OC(C)(C)C)o2)c1C | 12.2
COCCCNC(=O)CNC(=O)c1cn(-c2ccccc2OC)c(=O)c2ccccc12 | -1.56
Cc1cc(S(=O)(=O)Cc2noc(-c3c(C)noc3C)n2)c(C)cc1Cl | -7.48
CCC1Oc2ccccc2N(CC(=O)NC2CC2)C1=O (centres unmarked) | 14.8
COc1ccc(/C=C2/CCc3ccccc3C2=O)cc1CN1CCOCC1 | -59.6
CSc1nnc(-c2ccc(NC(=O)CCc3ccccc3)cc2)n1C | 8.36
O=C(Nc1ccccc1N1CCCCC1)c1ccccc1F | -14.5
CCCCCCOc1ccc(N2C(=O)CC(N(CCc3ccc(S(N)(=O)=O)cc3)C(C)=O)C2=O)cc1 (centres unmarked) | 8.24
COc1ccc2[nH]c(=O)c(CNc3cc(C)ccc3C)cc2c1 | -1.5
O=C(CSc1ncccn1)N/N=C/c1cccc(OC2CSC2)c1 | -10.1
O=C(NCC(c1ccco1)N1CCCCC1)C(c1ccccc1)c1ccccc1 (centres unmarked) | -29.6
COc1ccc(CCNC(=O)C2CCN(S(=O)(=O)N3CCCCC3)CC2)cc1OC | -6.03
COC(=O)c1sccc1NC(=O)CSCC(=O)O | 15.4
CCOC1OC(=O)C(Cl)=C1Nc1cc(C)ccc1C (centres unmarked) | 16.6
O=C(CN(C(=O)c1csnn1)c1ccc(F)c(Cl)c1)NC1CCCC1 | -5.01
CCCc1cc(=O)oc2cc3occ(C)c3cc12 | -0.245
C[C@H](NC(=O)[C@@H]1CSC2c3ccccc3C(=O)N21)C(=O)NCCc1ccc(F)cc1 (some centres unmarked) | -9.71
Cc1cc(C)n2nc(SCC(=O)N(CCC#N)c3ccccc3F)nc2n1 | 7.84
O=C(Cc1ccccc1)NCCc1cnc[nH]1 | 17.4

Structure (SMILES) | hERG current change (%, negative = inhibition) at 10uM [%]
CCN(CC)S(=O)(=O)c1cccc(-c2n[nH]c(=S)n2Cc2ccccc2)c1 | -18.3
O=C(NC1(C(F)(F)F)N=C2SCCN2C1=O)c1ccco1 (centres unmarked) | 2.81
Cc1cccc(NC(=O)Nc2ccc3c(c2)OCO3)n1 | 12.6
O=C(O)CC12C[C@H]3C[C@@H](C1)CC(n1ncc(N4CCN(c5ccccc5)CC4)c(Cl)c1=O)(C3)C2 | 6.36
CCOC(=O)c1c(NC(=O)Cc2ccccc2)sc2c1CCN(C)C2.Cl | -53
CN(C(=O)CSc1nnc(COc2ccccc2F)n1N)C1CCCCC1 | -7.7
COc1ccc(C)cc1NS(=O)(=O)c1ccc2c(c1)CCN2C(C)=O | -17.2
O=C(O)c1ccccc1C(=O)Nc1ccc(S(=O)(=O)Nc2ccc(F)cc2)cc1 | 21.4
Br.CCOC(=O)Cn1c(=N)n(Cc2ccccc2)c2ccccc21 | -34.6
COc1ccccc1-n1c(/C=C/c2ccc(O)cc2)nc2ccccc2c1=O | 16.5
COc1ccc(OC)c(NC(=O)C2C3C=CC(C3)C2C(=O)NCc2cccnc2)c1 (centres unmarked) | -0.666
COCCn1c(SCC(=O)NCc2ccco2)nc2cccnc21 | 14.8
CN1CCN(c2sc(S(C)(=O)=O)nc2S(=O)(=O)c2ccc(Cl)cc2)CC1 | -25.9
CC(C)CC(=O)Nc1ccc2c(c1)OCO2 | 19.7
Cc1cccc(C)c1Nc1nnc(SCC(=O)Nc2ncc(C(F)(F)F)cc2Cl)s1 | -16.8
Cc1cc(Cl)c(OCCCSc2nc(C)cc(=O)[nH]2)c(Br)c1 | -10.3
Cl.NS(=O)(=O)c1ccc(CCNCc2cc(Br)ccc2OCc2ccccc2F)cc1 | -75.9
C=CCc1ccccc1OCC(O)CNC(=O)c1ccccc1C(=O)O (centres unmarked) | 13.6
